# Measurements published in the supplement of paper PMC8728848.
# Some of the results follow.
# B1: BDCA2 ex-domain (Homo sapiens) (protein)
# chain: MASHHHHHHIEGRGLNDIFEAQKIEWHESLVPRGSCPTPWTSFQSSCYFISTGMQSWTKSQKNCSVMGADLVVINTREEQDFIIQNLKRNSSYFLGLSDPGGRRHWQWVDQTPYNENVTFWHSGEPNNLDERCAIINFRSSEEWGWNDIHCHVPQKSICKMKKIY
# Key:
# Assay in all cases: glycan array binding signal (z-score within array); higher = stronger binding
# Details in all cases: glycan notation: IUPAC condensed, linker removed
# [1] = biological target: Neu5Ac(a2-3)Gal6S(b1-4)[Fuc(a1-3)]GlcNAc
# How it was run: (§1)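 The binding signal is a Z-score computed within each array. Data were drawn from 3228 arrays in the Consortium for Functional Glycomics database, restricted to those with a known protein sequence. Scores were averaged over arrays of the same protein sequence at different concentrations or buffers, and over linkers, and negative values can be taken as non-binding.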
# [2] = biological target: Neu5Ac(a2-3)GalNAc
# How it was run: as §1
# [3] = biological target: Neu5Ac(a2-3)GalNAc(b1-4)GlcNAc
# How it was run: as §1
# [4] = biological target: Neu5Ac(a2-3)[GalNAc(b1-4)]Gal(b1-4)Glc
# How it was run: as §1
# [5] = biological target: Neu5Ac(a2-3)[GalNAc(b1-4)]Gal(b1-4)GlcNAc
# How it was run: as §1
# [6] = biological target: Neu5Ac(a2-3)[Neu5Ac(a2-6)]GalNAc
# How it was run: as §1
# [7] = biological target: Neu5Ac(a2-6)Gal
# How it was run: as §1
# [8] = biological target: Neu5Ac(a2-6)Gal(b1-4)Glc
# How it was run: as §1
# [9] = biological target: Neu5Ac(a2-6)Gal(b1-4)GlcNAc
# How it was run: as §1
# [10] = biological target: Neu5Ac(a2-6)Gal(b1-4)GlcNAc(b1-2)Man(a1-3)[Gal(b1-4)GlcNAc(b1-2)Man(a1-6)]Man(b1-4)GlcNAc(b1-4)GlcNAc
# How it was run: as §1
# [11] = biological target: Neu5Ac(a2-6)Gal(b1-4)GlcNAc(b1-2)Man(a1-3)[GlcNAc(b1-2)Man(a1-6)]Man(b1-4)GlcNAc(b1-4)GlcNAc
# How it was run: as §1
# [12] = biological target: Neu5Ac(a2-6)Gal(b1-4)GlcNAc(b1-2)Man(a1-3)[GlcNAc(b1-2)Man(b1-4)GlcNAc(b1-2)Man(a1-6)]Man(b1-4)GlcNAc(b1-4)GlcNAc
# How it was run: as §1
# [13] = biological target: Neu5Ac(a2-6)Gal(b1-4)GlcNAc(b1-2)Man(a1-3)[Neu5Ac(a2-6)Gal(b1-4)GlcNAc(b1-2)Man(a1-6)]Man(b1-4)GlcNAc(b1-4)GlcNAc
# How it was run: as §1
# [14] = biological target: Neu5Ac(a2-6)Gal(b1-4)GlcNAc(b1-2)Man(a1-6)[Gal(b1-4)GlcNAc(b1-2)Man(a1-3)]Man(b1-4)GlcNAc(b1-4)GlcNAc
# How it was run: as §1
# [15] = biological target: Neu5Ac(a2-6)Gal(b1-4)GlcNAc(b1-2)Man(a1-6)[GlcNAc(b1-2)Man(a1-3)]Man(b1-4)GlcNAc(b1-4)GlcNAc
# How it was run: as §1
# [16] = biological target: Neu5Ac(a2-6)Gal(b1-4)GlcNAc(b1-3)Gal(b1-4)GlcNAc
# How it was run: as §1
# [17] = biological target: Neu5Ac(a2-6)Gal(b1-4)GlcNAc(b1-3)Gal(b1-4)[Fuc(a1-3)]GlcNAc(b1-3)Gal(b1-4)[Fuc(a1-3)]GlcNAc
# How it was run: as §1
# [18] = biological target: Neu5Ac(a2-6)Gal(b1-4)GlcNAc6S
# How it was run: as §1
# [19] = biological target: Neu5Ac(a2-6)GalNAc
# How it was run: as §1
# [20] = biological target: Neu5Ac(a2-6)GalNAc(b1-4)GlcNAc
# How it was run: as §1
# [21] = biological target: Neu5Ac(a2-8)Neu5Ac
# How it was run: as §1
# [22] = biological target: Neu5Ac(a2-8)Neu5Ac(a2-3)Gal(b1-4)Glc
# How it was run: as §1
# [23] = biological target: Neu5Ac(a2-8)Neu5Ac(a2-3)[GalNAc(b1-4)]Gal(b1-4)Glc
# How it was run: as §1
# [24] = biological target: Neu5Ac(a2-8)Neu5Ac(a2-8)Neu5Ac
# How it was run: as §1
# [25] = biological target: Neu5Ac(a2-8)Neu5Ac(a2-8)Neu5Ac(a2-3)Gal(b1-4)Glc
# How it was run: as §1
# [26] = biological target: Neu5Ac(a2-8)Neu5Ac(a2-8)Neu5Ac(a2-3)[GalNAc(b1-4)]Gal(b1-4)Glc
# How it was run: as §1
# [27] = biological target: Neu5Ac(a2-8)Neu5Ac(a2-8)Neu5Ac(a2-8)Neu5Ac(a2-3)[GalNAc(b1-4)]Gal(b1-4)Glc
# How it was run: as §1
# [28] = biological target: Neu5Ac(b2-6)Gal(b1-4)GlcNAc
# How it was run: as §1
# [29] = biological target: Neu5Ac(b2-6)GalNAc
# How it was run: as §1
# [30] = biological target: Neu5Ac9Ac(a2-6)Gal(b1-4)GlcNAc
# How it was run: as §1
# [31] = biological target: Neu5Gc(a2-3)Gal(b1-3)GlcNAc
# How it was run: as §1
# [32] = biological target: Neu5Gc(a2-3)Gal(b1-3)[Fuc(a1-4)]GlcNAc
# How it was run: as §1
# [33] = biological target: Neu5Gc(a2-3)Gal(b1-4)Glc
# How it was run: as §1
# [34] = biological target: Neu5Gc(a2-3)Gal(b1-4)GlcNAc
# How it was run: as §1
# [35] = biological target: Neu5Gc(a2-3)Gal(b1-4)[Fuc(a1-3)]GlcNAc
# How it was run: as §1
# [36] = biological target: Neu5Gc(a2-6)Gal(b1-4)GlcNAc
# How it was run: as §1
# [37] = biological target: Neu5Gc(a2-6)GalNAc
# How it was run: as §1
# [38] = biological target: Neu5Gc(b2-6)Gal(b1-4)GlcNAc
# How it was run: as §1
binder,measurement,setting,value
B1,glycan array binding signal (z-score),[1],-0.35
same,glycan array binding signal (z-score),[2],0.048
same,glycan array binding signal (z-score),[3],-0.444
same,glycan array binding signal (z-score),[4],-0.249
same,glycan array binding signal (z-score),[5],-0.148
same,glycan array binding signal (z-score),[6],-0.305
same,glycan array binding signal (z-score),[7],-0.129
same,glycan array binding signal (z-score),[8],-0.272
same,glycan array binding signal (z-score),[9],-0.325
same,glycan array binding signal (z-score),[10],2.93
same,glycan array binding signal (z-score),[11],-0.24
same,glycan array binding signal (z-score),[12],-0.323
same,glycan array binding signal (z-score),[13],-0.101
same,glycan array binding signal (z-score),[14],0.603
same,glycan array binding signal (z-score),[15],-0.514
same,glycan array binding signal (z-score),[16],-0.657
same,glycan array binding signal (z-score),[17],0.319
same,glycan array binding signal (z-score),[18],-0.454
same,glycan array binding signal (z-score),[19],-0.431
same,glycan array binding signal (z-score),[20],-0.338
same,glycan array binding signal (z-score),[21],0.006
same,glycan array binding signal (z-score),[22],-0.153
same,glycan array binding signal (z-score),[23],-0.573
same,glycan array binding signal (z-score),[24],0.01
same,glycan array binding signal (z-score),[25],-0.291
same,glycan array binding signal (z-score),[26],-0.092
same,glycan array binding signal (z-score),[27],-0.432
same,glycan array binding signal (z-score),[28],-0.353
same,glycan array binding signal (z-score),[29],-0.449
same,glycan array binding signal (z-score),[30],-0.233
same,glycan array binding signal (z-score),[31],-0.274
same,glycan array binding signal (z-score),[32],-0.317
same,glycan array binding signal (z-score),[33],0.321
same,glycan array binding signal (z-score),[34],0.258
same,glycan array binding signal (z-score),[35],-0.137
same,glycan array binding signal (z-score),[36],-0.596
same,glycan array binding signal (z-score),[37],-0.083
same,glycan array binding signal (z-score),[38],-0.128
